Where a name gives a salt, the structure may show the parent alone. The list shows a part of the results. The data scatter; read single values as rough.

Among the test systems are MKN45; PANC1; SUM159; T84.
Holding throughout (test): ALDHbr (CSC) cell proportion score relative to DMSO vehicle (ratio to DMSO); breast (SUM159) / gastric (MKN45) / pancreatic (PANC1) / colon cancer lines; ALDHbr cells have high ALDH activity and are rich in cancer stem cells (CSC); higher = more CSC (ALDHbr) cells remaining
Holding throughout (conditions): 10 µM; 72 h
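Note: High-content imaging of ALDEFLUOR-stained cells with Hoechst-labelled nuclei in 384-well plates, triplicate wells, scored as Z-score against 0.1% DMSO vehicle, negative meaning fewer ALDHbr cells.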

In the case of `CC1CC(OC(=O)c2ccccc2O)CC(C)(C)C1` (configuration not stated) [Homosalate], the ALDHbr with MKN45 came to 0.904; in the test on PANC1, 0.951; in the test on SUM159, 1.01; in the test with T84 it was 1.01.
`OCCN1C[C@H](O)[C@@H](O)[C@H](O)[C@H]1CO` [Miglitol]: the ALDHbr was 1.07 in the test on MKN45, 1.04 in the test with PANC1, 0.988 in the test with SUM159 and 0.903 in the test on T84.
As to `CN1CCN(C2=Nc3ccccc3Oc3ccc(Cl)cc32)CC1` [Loxapine succinate], the ALDHbr came to 1.03 in the test on MKN45, 0.876 in the test with PANC1, 0.737 with SUM159 and 0.801 in the test with T84.
On the same counts, the results for `CN1CCN2c3ccccc3Cc3ccccc3C2C1` (configuration not stated) [Mianserine hydrochloride] are 0.802, 1.05, 0.699 and 1.01.
Turning to `CC1(C)[C@@H](OC(=O)CCC(=O)O)CC[C@]2(C)[C@H]3C(=O)C=C4[C@@H]5C[C@@](C)(C(=O)O)CC[C@]5(C)CC[C@@]4(C)[C@]3(C)CC[C@@H]12` [Carbenoxolone disodium salt], the ALDHbr in the test with MKN45 is 1.06; in the test with PANC1 it was 0.913; with SUM159 it was 0.988; in the test with T84, 1.02.
Take `O=C(N[C@H](CO)[C@H](O)c1ccc([N+](=O)[O-])cc1)C(Cl)Cl` [Chloramphenicol]: the ALDHbr was found to be 0.568 in the test with MKN45, 0.472 with PANC1, 1.07 in the test with SUM159 and 0.738 with T84.
On the same counts, the results for `COc1ccc2[nH]c([S+]([O-])Cc3ncc(C)c(OC)c3C)nc2n1` (configuration not stated) [Tenatoprazole] are 1.5, 0.755, 1.1 and 0.85.
Regarding `C[C@@H]1[C@H](O)[C@@H](C)/C=C/C=C/C=C/C=C/C=C/C=C/C=C/[C@H](O[C@@H]2O[C@H](C)[C@@H](O)[C@H](N)[C@@H]2O)C[C@@H]2O[C@](O)(C[C@@H](O)C[C@@H](O)[C@H](O)CC[C@@H](O)C[C@@H](O)CC(=O)O[C@H]1C)C[C@H](O)[C@H]2C(=O)O` [Amphotericin B], the ALDHbr came to 0.925 with MKN45, 0.674 with PANC1, 0.28 in the test on SUM159 and 0.578 in the test on T84.

The values above are taken from the supplement of paper PMC11880418.
